# From PMC4336329 (PLoS ONE, 2015)
# The campaign covered roughly 310,000 compounds. About 14,000 (4.5%) showed an effect of 50% or more. The effect is printed as a negative number. The list shows a part of the results.
# Molecular target: human ether-à-go-go-related gene (hERG) potassium channel (human, UniProt Q12809)
# Assay: primary screen, population patch clamp on CHO cells stably expressing hERG
# 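Also: peak tail current of the secondary pulse compared with the same well before compound.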
# human ether-à-go-go-related gene (hERG) potassium channel, sequence (Q12809 whole entry, looked up): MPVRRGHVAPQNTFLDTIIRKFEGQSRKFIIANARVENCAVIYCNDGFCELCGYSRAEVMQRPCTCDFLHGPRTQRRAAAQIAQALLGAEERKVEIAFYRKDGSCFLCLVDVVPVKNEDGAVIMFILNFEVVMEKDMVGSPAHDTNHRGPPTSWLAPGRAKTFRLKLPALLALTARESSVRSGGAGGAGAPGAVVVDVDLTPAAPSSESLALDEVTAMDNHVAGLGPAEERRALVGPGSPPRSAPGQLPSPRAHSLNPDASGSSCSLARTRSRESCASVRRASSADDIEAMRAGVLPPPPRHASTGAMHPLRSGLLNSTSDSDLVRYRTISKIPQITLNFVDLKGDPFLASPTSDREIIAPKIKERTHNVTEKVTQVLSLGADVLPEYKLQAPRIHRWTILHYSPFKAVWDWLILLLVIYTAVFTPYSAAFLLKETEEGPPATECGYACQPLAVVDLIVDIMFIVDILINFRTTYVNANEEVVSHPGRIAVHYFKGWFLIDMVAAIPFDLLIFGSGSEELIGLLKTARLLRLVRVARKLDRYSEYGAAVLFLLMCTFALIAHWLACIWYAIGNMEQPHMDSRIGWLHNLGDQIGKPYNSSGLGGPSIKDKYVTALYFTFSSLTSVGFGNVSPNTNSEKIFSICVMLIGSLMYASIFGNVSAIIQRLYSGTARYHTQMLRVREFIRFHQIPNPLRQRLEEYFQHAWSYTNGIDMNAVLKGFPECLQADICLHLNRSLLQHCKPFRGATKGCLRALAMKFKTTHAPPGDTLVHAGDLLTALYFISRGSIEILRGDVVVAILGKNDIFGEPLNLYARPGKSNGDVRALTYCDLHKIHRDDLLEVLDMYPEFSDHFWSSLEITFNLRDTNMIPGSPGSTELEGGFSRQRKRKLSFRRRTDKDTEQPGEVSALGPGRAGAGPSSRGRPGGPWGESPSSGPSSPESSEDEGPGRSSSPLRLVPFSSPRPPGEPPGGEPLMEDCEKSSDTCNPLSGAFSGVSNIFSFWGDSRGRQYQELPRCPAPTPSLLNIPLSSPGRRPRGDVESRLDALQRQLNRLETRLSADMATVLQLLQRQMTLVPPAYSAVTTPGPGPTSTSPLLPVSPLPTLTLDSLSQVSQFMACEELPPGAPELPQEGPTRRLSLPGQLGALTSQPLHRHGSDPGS
row,SMILES,"hERG current change (%, negative = inhibition) at 10uM"
1,O=C1NC(=O)C(=Cc2ccc(N3CCN(C(=O)c4ccccc4)CC3)c([N+](=O)[O-])c2)C(=O)N1,-67.1%
2,O=C(NCCc1c[nH]c2ccccc12)/C(=C\c1cccnc1)NC(=O)c1ccccc1F,-58.5%
3,COC1=C(OC)c2ccccc2C(C(=O)O)N/C1=C(/C)Nc1ccncc1 (centres unmarked),-7.81%
4,O=C(CC1(O)C(=O)Nc2ccccc21)c1ccc2c(c1)OCO2 (centres unmarked),-3.95%
5,C[C@H](NC(=O)c1nc[nH]c1C(=O)N[C@@H](Cc1ccccc1)C(=O)OCc1ccccc1)c1ccccc1,16.9%
6,COc1ccc(NS(=O)(=O)c2ccc(-c3coc(C)n3)cc2)cc1OC,12.8%
7,Cc1ccc(N(CC(=O)N2CCn3c2nc2ccccc23)S(=O)(=O)c2c(C)n[nH]c2C)cc1,-27.2%
8,CCn1cnc2cc(NCc3ccc(Cl)cc3)ccc21,-68%
9,Cc1c(C(=O)N(C)C2CCCCC2)sc2ncnc(N3CCN(c4ccccc4F)CC3)c12,-2.89%
10,CCCN1CCN(CCCNC(=O)c2ccc(NC(=O)C3=C(C)OCCS3)cc2)CC1,1.83%
11,Cc1cc(=O)oc2cc(OCC(=O)NC3CC(C)(C)NC(C)(C)C3)c(Cl)cc12,25.8%
12,O=C(C1CC(c2ccc(F)cc2)=NO1)N1CCCc2ccccc21 (centres unmarked),-28%
13,COC(=O)c1cc(CSc2nnc(-c3ccccc3)c(-c3ccccc3)n2)oc1C,13.1%
14,Cc1cc(C(=O)N[C@H](c2ccccc2)[C@@]2(C)C[C@@H]2[C@@H](C)C(=O)Nc2ccc3ccccc3c2)no1,-0.526%
15,Cc1nn(-c2ccccc2)c(C)c1NC(=O)COC(=O)c1ccccc1OC(F)F,19.4%
16,CSc1cccc(CN2CCN(Cc3ccccc3)C(CCO)C2)c1 (centres unmarked),-57.7%
17,Cc1ccc(Sc2oc(/C=N/n3cnnc3)cc2Br)cc1,4.35%
18,CC(=O)NCCc1ccc(S(=O)(=O)Nc2ccc3c(c2)OCCO3)cc1,12.3%
19,COc1cccc(-c2nc3ccccc3s2)c1,2.76%
20,NC(=O)c1ccc2c(c1)OCCO2,6.04%
21,CC(C)Oc1ccccc1C1CC(=O)Nc2cc3c(cc21)OCCO3 (centres unmarked),-22.4%
22,O=C(Nc1ccc(NC(=O)c2ccccc2Cl)nc1)c1ccco1,2.09%

row,SMILES,"hERG current change (%, negative = inhibition) at 10uM"
1,O=C(OCC(=O)c1ccc(Cl)s1)c1ccccn1,13.9%
2,Cl.O=C(COc1ccccc1F)NC1CCN(Cc2ccccc2)CC1,-38.5%
3,Cc1cc(C)c(NC(=S)N(CCN(C)C)C(C)c2cccnc2)c(C)c1 (centres unmarked),-14.9%
4,Cc1ccc(NC(=O)CCC(=O)NNC(=O)c2ccccc2)c(C)c1,20.7%
5,O=C(CCC(=O)N1CCN(c2ccc(O)cc2)CC1)c1ccc(Br)cc1,-44.4%
6,Cn1nc(C(=O)Nc2ccc(S(=O)(=O)Nc3ncccn3)cc2)ccc1=O,0.865%
7,C=CCN1C(=O)C(CC(=O)Nc2ccccc2)S/C1=N/c1nccs1 (centres unmarked),-1.67%
8,NC(=O)COC(=O)c1ccc(Oc2ccccc2)cc1,-2.12%
9,CCCn1c(-c2ccc(F)cc2)n[nH]c1=S,4.33%
10,Clc1ccc(N2CCNCC2)nn1,13.1%
11,Cc1ccc2c(Cl)cc(Cl)c(OCC(=O)NC3CCS(=O)(=O)C3)c2n1 (centres unmarked),-21.2%
12,O=C(NC(=S)N1CCCc2ccccc21)c1ccc([N+](=O)[O-])cc1,5.8%
13,CCOC(=O)CSc1nnc(CNc2cccc(Cl)c2)n1C,9.29%
14,Cc1nnsc1NC(=O)OCc1ccc(C(C)(C)C)cc1,7.32%
15,Cc1ccccc1NC(=O)C1CCCN(c2ncnc3onc(-c4ccc(F)cc4)c23)C1 (centres unmarked),-9.58%
16,COc1ccc2c(=O)c(-c3ccc(OC)c(OC)c3)coc2c1,-11.2%
17,CCOC(=O)c1nc(Nc2cc(C)cc(C)c2)c2ccccc2n1,-5.78%
18,CC(C)Oc1ccc(/C=C(/NC(=O)c2ccccc2)C(=O)NCCC(=O)O)cc1,11.3%
19,COc1ccc(N2CCN(C(=O)CSc3nc4c(c(=O)n(C)c(=O)n4C)n3C(C)C)CC2)cc1,-50.2%
20,O=C(CSc1nnc(COc2ccccc2F)n1-c1ccccc1)NCc1ccco1,-17.6%
21,COc1ccc(NC(=O)CSCC(=O)NCCc2ccccn2)cc1,15.7%
22,Cc1ccc2nc(NC(=O)CSCc3ccccc3)sc2c1,1.11%
